Measured values published in PubChem BioAssay AID504832 (National Center for Advancing Translational Sciences (NCATS), 2011).
In all, about 310,000 compounds went through this assay and about 18,000 (5.8%) were called active. This list was built around the results that the source calls inconclusive (neither active nor inactive); the mix of calls is not that of the screen. Calls follow the shape of the dose curve; as a rule, active = well fitted inhibition curve with a large enough effect; inconclusive = small, poorly fitted or top-dose-only effect, or another doubt; inactive = no such curve, though single readings can be large or run the other way. Potencies of inconclusive entries are left out as doubtful fits.

Assay: Primary qHTS for delayed death inhibitors of the malarial parasite plastid, 48 hour incubation
Details: P. falciparum luciferase growth in erythrocytes; series mostly up to 28.7 µM; activity change, negative = inhibition: at the top concentration
Outline: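 Luciferase-expressing parasites in RBCs, 2% Hct / 0.1% parasitemia final; RPMI 1640 + 0.5% Albumax; 37 C, 5% CO2, one generation; luminescence read-out, lower signal = inhibition.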
% is scaled to controls: 0 for no effect and ±100 for the full control effect; potency is read from the fitted curve at half-maximal effect; tags tell the direction and shape of the fitted curve.

Question: For O=c1c(-c2ccccc2)c(O)nc2ccccn12, which “activity change, negative = inhibition” value is on record?
Answer: The value was inactive: 33.5%.

Question: Which Potency does the source give for CC(=O)Nc1ccc(-c2nnn(CC(=O)c3ccc(F)cc3)n2)cc1Cl here?
Answer: Its Potency is inconclusive [inhibitor, partial curve, poor fit].

Question: For Cc1ccccc1N1CC(C(=O)Nc2nnc(SCC(=O)Nc3nccs3)s2)CC1=O (stereo unspecified), which Potency is on record?
Answer: The Potency was inconclusive [inhibitor, single point].

Question: With CC1(C)Cc2nc3sc4c(SCC(=O)O)ncnc4c3cc2CO1 as the compound, how does the Potency read?
Answer: Its Potency is active: 0.828 µM.

Question: Which “activity change, negative = inhibition” value does the source give for COc1ccc(/C=N/NC(=O)C(=O)N2CCCC2)cc1 here?
Answer: The value was inactive: 0.603%.

Question: Which “activity change, negative = inhibition” value does the source give for CCN1C(=O)/C(=C\c2ccc(F)cc2)N=C1SCC(=O)NCc1ccco1 here?
Answer: The value was inactive: 15.1%.

Question: With CCN(CC)S(=O)(=O)c1ccc(NC(=O)CSc2ncnc3ccccc23)cc1 as the compound, how does the Potency read?
Answer: The Potency was inconclusive [inhibitor, single point].

Question: For COc1ccccc1CNC(=O)COC(=O)c1ncc(Cl)c(Cl)c1Cl, which “activity change, negative = inhibition” value is on record?
Answer: The value was inactive: 3.94%.

Question: With N=C1N(/N=C/c2ccccc2)C(=Nc2ccccc2)C(=S)N1c1ccccc1 as the compound, how does the Potency read?
Answer: The Potency was inconclusive [inhibitor, single point].

Question: With CCOc1ccccc1N(CC(=O)O)S(=O)(=O)c1ccccc1 as the compound, how does the “activity change, negative = inhibition” value read?
Answer: The value was inactive: 15.6%.

Question: Which Potency does the source give for CCN(CC)CCOC(=O)c1ccc(NC(=O)C2(c3ccccc3)CCCC2)cc1 here?
Answer: Its Potency is inconclusive [inhibitor, single point].

Question: Which “activity change, negative = inhibition” value does the source give for Cc1cc(C)c2c(c1)NC(=O)C2(O)CC(=O)c1cccs1 (stereo unspecified) here?
Answer: Its value is inactive: 18.7%.

Question: For COc1ccc(-n2cc(-c3ccc(Cl)cc3)[nH]c2=S)cc1, which Potency is on record?
Answer: Its Potency is inconclusive [inhibitor, full curve, poor fit].

Question: For O=C(CN1CCN(CC(=O)Nc2ccc(Cl)cc2)CC1)Nc1ccc(F)cc1, which Potency is on record?
Answer: The Potency was inconclusive [inhibitor, partial curve, poor fit].

Question: For CCCCc1c(C)c(C#N)c2[nH]c3ccccc3n2c1=O, which Potency is on record?
Answer: The Potency was inconclusive [inhibitor, partial curve].

Question: Which “activity change, negative = inhibition” value does the source give for O=C(CSc1ccc(C(F)(F)F)cc1[N+](=O)[O-])N1CCOCC1 here?
Answer: The value was inactive: 60.7%.

Question: With CC(=O)c1ccc(N2CCN(S(=O)(=O)c3cc(-c4cc(C)no4)ccc3C(C)C)CC2)cc1 as the compound, how does the Potency read?
Answer: The Potency was active: 10.4 µM.

Question: Which Potency does the source give for CC(C)(C)C(=O)Nc1c(Cl)cccc1OC(F)(F)F here?
Answer: Its Potency is inconclusive [inhibitor, single point].

Question: Which Potency does the source give for CC(Sc1nnc(-c2ccccc2F)n1C1CC1)C(=O)N1CCCC1 (stereo unspecified) here?
Answer: Its Potency is inconclusive [inhibitor, single point].

Question: Which Potency does the source give for COc1cccc(-c2cc(C(=O)Nc3c(C)nn(Cc4ccccc4C)c3C)no2)c1 here?
Answer: Its Potency is active: 5.22 µM.

Question: Which Potency does the source give for Cc1ccc2cc(CCNC(=O)c3ccc(C)c([N+](=O)[O-])c3)c(=O)[nH]c2c1 here?
Answer: Its Potency is inconclusive [inhibitor, single point].
